# Experimental data taken from paper PMC7819943, “Rice protein-binding microarrays: a tool to detect cis-acting elements near promoter regions in rice”.
# The list shows a part of the results.
# Target: T1, OsWOX13 (Oryza sativa, UniProt Q5QMM3 1-267)
# T1 sequence: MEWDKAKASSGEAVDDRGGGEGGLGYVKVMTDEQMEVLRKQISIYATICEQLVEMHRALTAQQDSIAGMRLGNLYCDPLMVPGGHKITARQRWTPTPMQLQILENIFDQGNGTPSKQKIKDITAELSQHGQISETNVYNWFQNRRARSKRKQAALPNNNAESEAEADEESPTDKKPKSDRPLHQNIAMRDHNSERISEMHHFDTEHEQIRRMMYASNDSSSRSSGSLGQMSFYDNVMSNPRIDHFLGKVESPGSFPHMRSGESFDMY
# Assay: protein-binding microarray (RPBM); PBS, 2% BSA, 51.3 ng/ul salmon testes DNA, 50 uM zinc acetate, 200 nM TF, 25 C, 1 h; high values mean tight binding
# Settings: protein: recombinant; tags: N-terminal polyhistidine and DsRed monomer fusion (pET32a); label: CyDye5-dUTP incorporated in the synthesized complementary strand; 3' TTTTT single-stranded linker to array surface; dsDNA, one strand shown
# Procedure, shortened: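 Binding signal here means per-feature fluorescence intensity in arbitrary units. The values were read on an Axon 4000B scanner after a custom Agilent array, double-stranded by primer extension with Cy5-dUTP, was incubated with 200 nM protein at 25 °C for 1 h in PBS with 2% BSA, salmon testes DNA and 50 µM zinc acetate, then washed. The proteins were transcription factors with an N-terminal polyhistidine tag and DsRed, expressed in E. coli BL21-CodonPlus and purified on Ni–NTA.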
row,Sequence,binding signal
1,CTGTCAATCTGCATATATCTGTCTCTCTTACTCACTAACACGGAGTCACCTAGTGCAG,8750 fluorescence intensity (a.u.)
2,ACAGAAATTTTATTAGACAAATCAAAATGGAGTTGAACAGCGGAGTCACCTAGTGCAG,4600 fluorescence intensity (a.u.)
3,CGTTTTAAATTAGGAACTTAGCCATCAAATAATCCAATTTCGGAGTCACCTAGTGCAG,7000 fluorescence intensity (a.u.)
4,ATAGATTTTATTTCCATAATGGTTTAGGATTGGGTAATTTCGGAGTCACCTAGTGCAG,4860 fluorescence intensity (a.u.)
5,AGGGAAGACAAATTTAAATTAAATGAAATTCGGAGGCACACGGAGTCACCTAGTGCAG,14600 fluorescence intensity (a.u.)
6,TAATAATTAGTGATTAATTATCCTGACCATTGATTCAACACGGAGTCACCTAGTGCAG,48300 fluorescence intensity (a.u.)
7,TCTGATTGGATTCACCAAACTGCTTCTTCACGGTAAGACGCGGAGTCACCTAGTGCAG,33800 fluorescence intensity (a.u.)
8,TTAATTATTGTAAATGCCTAATTGACTGACCACCAGAAGCCGGAGTCACCTAGTGCAG,28900 fluorescence intensity (a.u.)
9,GCTCGATTGGATAATTCTTCTGCATAACTAGCCAGTGGAGCGGAGTCACCTAGTGCAG,26800 fluorescence intensity (a.u.)
10,TGCGACTTTGTTTTATCAATTTAAAATTTGAATTTCAAAACGGAGTCACCTAGTGCAG,3830 fluorescence intensity (a.u.)
11,ACGTGATGATACACACATAATCGAATCGAATCGATAGATGCGGAGTCACCTAGTGCAG,3300 fluorescence intensity (a.u.)
12,ACTAGATTATCCTTTATTATTGGCAGTATCCAGATAAATACGGAGTCACCTAGTGCAG,6700 fluorescence intensity (a.u.)
13,GCAATCAATATGGTGATTAGAGTAGTCAAATCAAATGGCACGGAGTCACCTAGTGCAG,28000 fluorescence intensity (a.u.)
14,TCAAATTTTAAACAAAATTTTCAACTAAAATATGTATCTACGGAGTCACCTAGTGCAG,7090 fluorescence intensity (a.u.)
15,CATTTGATTTTCGGTCTGATTTTGTTATTTCACTGGCAATCGGAGTCACCTAGTGCAG,24300 fluorescence intensity (a.u.)
16,ATCACTAATTAGTACTCCAGAACCCATTTTGTGGGAGGACCGGAGTCACCTAGTGCAG,34800 fluorescence intensity (a.u.)
17,TCCATTTATCCCGATAATTTGTACTACATTTGTATAGGCCCGGAGTCACCTAGTGCAG,5670 fluorescence intensity (a.u.)
18,TAAATTCGTAACTTTAAATTTGGAGCTAATTTTAAGGTTTCGGAGTCACCTAGTGCAG,6010 fluorescence intensity (a.u.)
19,TTGATTGGCTTGGCTGGCTTTGGCTTCCCTGTTCGATATTCGGAGTCACCTAGTGCAG,40200 fluorescence intensity (a.u.)
20,CCACTTACATATGTAATTAGTATGTAATTTTCAAATTTACCGGAGTCACCTAGTGCAG,10700 fluorescence intensity (a.u.)
21,TCTGGTCATTTAATCAGTGACACATGGGTGATAATATCGACGGAGTCACCTAGTGCAG,4160 fluorescence intensity (a.u.)
22,CTTTAATCAGTGCAGTAAATATCATATGTAAATGGCGTAACGGAGTCACCTAGTGCAG,3810 fluorescence intensity (a.u.)
23,ACCTGAATCATAACAGGTTAATTAACTAAATCGAAAATGACGGAGTCACCTAGTGCAG,11900 fluorescence intensity (a.u.)
24,TAGCTTAATTACATAGCTCCTCCTCCTTTCTCCACTGACTCGGAGTCACCTAGTGCAG,9260 fluorescence intensity (a.u.)
25,GTCGACCAATCTTCTTTTCTTGATTTCAATCCATGATCTTCGGAGTCACCTAGTGCAG,10500 fluorescence intensity (a.u.)
26,AAATAATAAATTACTCTGGTGAGTTAACCCATAGACCAGTCGGAGTCACCTAGTGCAG,6030 fluorescence intensity (a.u.)
27,AGTATAAATTAGAATTTAGACTTCCAGTGGATGAAATCATCGGAGTCACCTAGTGCAG,17900 fluorescence intensity (a.u.)

row,Sequence,binding signal
1,ACGTTTAATATTTATAATTAATTTTCAAACATCCGATGTGCGGAGTCACCTAGTGCAG,19300 fluorescence intensity (a.u.)
2,GCCAGTGACAGGAACTCGGGAAGCAGTGGAAACAAAGGCCCGGAGTCACCTAGTGCAG,3200 fluorescence intensity (a.u.)
3,TAAGACTAATTAAGCTGTCATTAGCACATGTGGGTTACTGCGGAGTCACCTAGTGCAG,14500 fluorescence intensity (a.u.)
4,ATTAATCCATAATTAGCAAATGTTTACTGTAGCATCACATCGGAGTCACCTAGTGCAG,13800 fluorescence intensity (a.u.)
5,AGTTAGTGATTATATGATTAATCTATGGTCCAAATTATCTCGGAGTCACCTAGTGCAG,23900 fluorescence intensity (a.u.)
6,TAAATAATTTTGCTTGAATAATATTTGAAGGGAGAGAGAGCGGAGTCACCTAGTGCAG,7210 fluorescence intensity (a.u.)
7,ATTAATTTCTTCAAGCTTCTCACTAGTGATGGACTCATCGCGGAGTCACCTAGTGCAG,9400 fluorescence intensity (a.u.)
8,ACTCCAACTAATAATTAACAACAACACACTTCTCATGCATCGGAGTCACCTAGTGCAG,6040 fluorescence intensity (a.u.)
9,CAACACATTGCTGTAATTTGCCATCAGCTTTGGCCATCATCGGAGTCACCTAGTGCAG,3490 fluorescence intensity (a.u.)
10,TATTTAGATTGAGTTATTTTAGAACGAAGGGAGTACGCACCGGAGTCACCTAGTGCAG,31800 fluorescence intensity (a.u.)
11,ATAATTGGCAGCTAGGTTACTGTAGCTGTCGTAGATTGGCCGGAGTCACCTAGTGCAG,29800 fluorescence intensity (a.u.)
12,AACTGATCCTAATTAACACTACCCATATACTCTTTTCGTCCGGAGTCACCTAGTGCAG,6190 fluorescence intensity (a.u.)
13,TTCAGAGAGGCTAATTAGTGTGACAAATCGATCCCGATTGCGGAGTCACCTAGTGCAG,7760 fluorescence intensity (a.u.)
14,AAGTTTAATTATCACATCGAATATACATACGAACATTTGACGGAGTCACCTAGTGCAG,7590 fluorescence intensity (a.u.)
15,GCTGTATGATTAGATGAAGATGATGATGATCTTAGGATTTCGGAGTCACCTAGTGCAG,24700 fluorescence intensity (a.u.)
16,TGGCACATAATTTGCTTCCGGCCCATATGAATGTTGGCAGCGGAGTCACCTAGTGCAG,4770 fluorescence intensity (a.u.)
17,CCAGATTAGCAATCTTCAGGATTTCACTGACAGAGAACATCGGAGTCACCTAGTGCAG,26700 fluorescence intensity (a.u.)
18,ACATCGATCAGGTTTGTCAATTTAAATGAAAATCGACGGTCGGAGTCACCTAGTGCAG,8600 fluorescence intensity (a.u.)
19,CAAAACAATCAACGCGTCAACATGGTGATGCTCTGTTTGACGGAGTCACCTAGTGCAG,11100 fluorescence intensity (a.u.)
20,ATGATTAACATGTTTATAGGCACATCTGATTTATTCTAGCCGGAGTCACCTAGTGCAG,36800 fluorescence intensity (a.u.)
21,TCATCATATTACCAATTTAAACAAGGGACCATTTCCTTGTCGGAGTCACCTAGTGCAG,3320 fluorescence intensity (a.u.)
22,TGATGATTGGTTTCTTGGCCAATGGTTTGGTTGTTGTTTTCGGAGTCACCTAGTGCAG,23100 fluorescence intensity (a.u.)
23,TATTTGTTACTATTAAATTTAAAATTTTGGATTCATATTACGGAGTCACCTAGTGCAG,3160 fluorescence intensity (a.u.)
24,TATTGATAAAATTTGATAAGGTTTATTTTAGCTTCCATCTCGGAGTCACCTAGTGCAG,4530 fluorescence intensity (a.u.)
25,CTCAGTCATCTTACACCTGACTGAATTTAAATTCTACAATCGGAGTCACCTAGTGCAG,4380 fluorescence intensity (a.u.)
26,TTCAACCATAAATTGAATTGAATAGGACGGATGATGGTTACGGAGTCACCTAGTGCAG,12700 fluorescence intensity (a.u.)
27,TTGTCTTGAATTGAAGATAAACAGGGAATCCTGTTATTCACGGAGTCACCTAGTGCAG,6420 fluorescence intensity (a.u.)
